# From PubChem BioAssay AID1240 (Sanford-Burnham Center for Chemical Genomics, 2008)
# In all, about 50,000 compounds went through this assay and about 800 (1.6%) showed an effect of 50% or more. This is one part of the list.
# Molecular target: Bcl-2-like protein 10 (Homo sapiens) (UniProt Q9HD36)
# Test: TR3 peptide-Bcl-B binding displacers, biochemical primary FP assay, phenotype converters (AID 1240);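 also: 0% = Bcl-B with tracer peptide and DMSO and 100% = tracer peptide lacking Bcl-B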
# Settings: GST-Bcl-B / FITC-TR3 peptide fluorescence polarization; stronger effect = higher value; compound at 3.75 mg/L
# Sequence of UniProt Q9HD36 (Q9HD36 whole entry, looked up): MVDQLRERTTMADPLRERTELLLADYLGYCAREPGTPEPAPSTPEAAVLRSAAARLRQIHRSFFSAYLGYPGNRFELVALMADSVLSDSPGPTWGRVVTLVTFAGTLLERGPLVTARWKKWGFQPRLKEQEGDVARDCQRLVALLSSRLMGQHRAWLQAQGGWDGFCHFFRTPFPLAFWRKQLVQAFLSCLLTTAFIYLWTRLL
row,SMILES,displacement [%]
1,C=COCn1c2ccc(Cl)cc2c2cc(Cl)ccc21,-9.3
2,O=[N+]([O-])c1ccccc1S(=O)(=O)NCCSc1ccccn1,-4.4
3,CN1C(=O)/C(=C\c2cn(Cc3ccccc3)c3ccccc23)SC1=S,8.3
4,Cc1ccc(N2C(=O)C3C(C2=O)C2C=CC3C23CC3)cc1Br (stereo not drawn),6.6
5,CCOC(=O)C(CCCOc1ccc(C)cc1C)C(=O)OCC,-7.3
6,COc1cc(/C=C2\SC(=N)N(c3ccc(F)cc3)C2=O)ccc1O,-13.9
7,COc1ccc(CCNC(=O)COc2cccc(C)c2)cc1,-8.1
8,COc1ccc2ccccc2c1C=Nc1ccc(S(N)(=O)=O)cc1,-4.7
9,CC(C)(C)NCCN1CCn2c1nc1ccccc12,-2.7
10,CC(C)N1C(C)CC(O)N1C(=O)CC#N (stereo not drawn),-8.4
11,Oc1c(C=NCc2ccncc2)sc2ccccc12,-22.4
12,CN(C)c1ccnc2sc(C(=O)c3ccccc3)c(N)c12,4.7
13,S=C(c1ccc(-c2ccc(Cl)c(Cl)c2)o1)N1CCN(c2ccccc2)CC1,7.7
14,CC(=O)c1c(C)nc(-c2ccccc2)nc1NC(=O)Cc1ccccc1,-17.7
15,Cc1nc(N/N=C/c2ccc(N(C)C)cc2)cc(-c2ccccc2)n1,-14.2
16,O=C(O)COc1ccc(N2C(=O)c3ccc([N+](=O)[O-])cc3C2=O)cc1,-4.1
17,CN(CC(=O)N1c2ccc(Cl)cc2NC(=O)c2ccccc21)CC(O)c1ccccc1 (stereo not drawn),-3.3
18,O=C(C1CCCCC1)N1CCN=C1c1ccccc1,-1
19,COc1cc(OC)c(OC)cc1C=C1C(=O)N(C)C(=O)N(C)C1=O,15.5
20,Cc1cccc(NC(=O)/C=C/c2ccc3c(c2)OCO3)n1,1.4
21,COc1ccc(C2C3=C(CC(C)(C)CC3=O)Nc3nc(SC)[nH]c(=O)c32)cc1 (stereo not drawn),-7.7
22,Cc1[nH]c2c(Cl)cccc2c(=O)c1CN1CCCC1,7.3
23,N#Cc1cc2c(nc1SCC(=O)Nc1ccc(S(N)(=O)=O)cc1)CCCCC2,-1.5

row,SMILES,displacement [%]
1,CCCOC(=O)c1c(NC(=O)c2cnccn2)sc2c1CCC(C)C2 (stereo not drawn),-7.5
2,O=C(NC(=S)Nc1ccccc1)c1ccc(Cl)cc1,-8
3,CC1CN(c2c(Cl)cccc2[N+](=O)[O-])CCN1S(C)(=O)=O (stereo not drawn),14.6
4,COc1ccc(C2(CNC(=O)C(c3ccccc3)c3ccccc3)CCOCC2)cc1OC,-7.1
5,Cc1ccc2nc(SCCN3CCOCC3)[nH]c2c1,-1.3
6,COc1ccc(N(CC(=O)Nc2ccc(C(C)C)cc2)S(=O)(=O)c2ccccc2)cc1,11.7
7,Cc1ccc(C)c(OCCCCN2CCOCC2)c1C,3.2
8,COc1ccc(/C(N)=N/OC(=O)c2ccc(F)cc2)cc1,9.6
9,O=C(CN(CCc1ccccc1)S(=O)(=O)c1ccccc1)Nc1ccc(Br)cc1,-2.3
10,Cc1cc(Cl)ccc1OCC(=O)NNC(=O)c1cccs1,-7.3
11,COc1cc(/C=N/NS(=O)(=O)c2ccc3ccccc3c2)ccc1OCCN1CCOCC1,-2
12,Cc1ccc(C(C)(C)C)c(OCC(=O)Nc2ccc(C(=O)O)cc2)c1,-4
13,CCOC(=O)c1ccc[n+](CC(=O)c2cc3ccccc3oc2=O)c1,8.8
14,Cc1n[nH]c(C)c1Sc1ccccc1N=Cc1ccc(C(=O)O)cc1,7.8
15,COc1cccc(/C=C2\SC(=Nc3cccc(Cl)c3Cl)NC2=O)c1,13
16,CCCC(C)NS(=O)(=O)c1ccc(OC)cc1 (stereo not drawn),1.1
17,Cc1sc(NC(=O)/C=C/c2cccc(Cl)c2)nc1-c1ccccc1,-3
18,Cc1ccc(Cl)cc1NC(=O)C(=O)NCc1cccnc1,-7.4
19,COC(=O)c1sccc1NC(=O)c1ccc(Br)cc1,2.6
20,CC(C)c1ccc(NC(=O)C(=O)NCCO)cc1,9.1
21,Clc1ccccc1-c1noc(COc2ccc(Br)cc2)n1,5.1
22,COc1cccc(C2Nc3ccc4ccccc4c3C3=C2C(=O)CC(C)(C)C3)c1OCC(=O)O (stereo not drawn),30
23,O=C1N2CN(C3CCCCC3)CN=C2SC1(CO)CO,-0.4

row,SMILES,displacement [%]
1,Fc1cnc(NN=Cc2cccs2)nc1N1CCOCC1,-16.8
2,O=c1oc2cc(OCc3c(F)c(F)c(F)c(F)c3F)ccc2cc1-c1ccccn1,10.5
3,O=C(Nc1ccc(Cl)cc1)Nc1nnc(Cc2ccc(F)cc2)s1,2.3
4,COC(=O)c1c(-c2ccc(Cl)cc2)csc1N,2.1
5,O=C1ON=C(c2ccccc2)/C1=C\c1cccc(O)c1,-14.3
6,COC(=O)C1=C(C)N(c2ccc(Cl)cc2)C(=O)/C1=C\c1ccco1,13.7
7,COc1cc(OC)cc(C(=O)Nc2ccc3oc(-c4ccc(OC)c(Br)c4)nc3c2)c1,-3.3
8,CCOC(=O)C1=C(C)OC(N)=C(C#N)C1c1ccc(OC)cc1OC (stereo not drawn),4.1
9,O=C(Nc1ccc(-c2ccccc2)cc1)c1ccc(Br)cc1,-3.5
10,Cc1ccc(NS(=O)(=O)c2cccs2)cc1C,1.7
11,C=CCOC(=O)C1=C(C)NC(=O)NC1c1ccc(Cl)cc1 (stereo not drawn),0.6
12,CCOc1ccc(C(=O)Nc2ccccc2C(=O)O)cc1,9.2
13,COc1cc(C2Nc3ccccc3C(=O)N2c2ccc(F)cc2)cc(OC)c1OC (stereo not drawn),9.6
14,COc1ccc(CNC(=O)CN(c2ccc(C)cc2)S(=O)(=O)c2ccc(F)cc2)cc1,-2.3
15,Cc1ccc(NC(=S)NC(=O)c2cccnc2)cc1Br,-6.8
16,O=C(N/N=C/c1ccc(Br)cc1)c1cc(C2CC2)[nH]n1,-18.8
17,CCc1nnc(NS(=O)(=O)c2ccc(N/C=C\C(=O)c3ccc4ccccc4c3)cc2)s1,12
18,CC(C)Cn1ccc(=O)n(CC(C)C)c1=O,10.7
19,CN(C)c1ccc(-n2nc3ccc4ccccc4c3n2)cc1,3.4
20,CC(C)CC(NC(c1ccccc1)(c1ccccc1)c1ccccc1)C(=O)O (stereo not drawn),8.9
21,O=C(Nc1cccc2nsnc12)c1cc2ccccc2o1,23.9
22,CCN1C(=O)c2cccc3c(S(=O)(=O)N(C)C)ccc1c23,6.6
23,O=[N+]([O-])c1ccccc1NN=C1CCCC1,-6

row,SMILES,displacement [%]
1,O=C(O)c1ccc(-c2nnc(-c3cccc(Br)c3)o2)cc1,-22.5
2,CCOc1cc(/C=N/n2c(C)nnc2C)ccc1O,6.9
3,Cc1ccc(Cl)cc1NC(=O)C(=O)NCCCO,-7.4
4,COc1ccccc1N1C(=O)NC(=O)/C(=C\c2ccc(Br)cc2)C1=O,4.4
5,Clc1cccc(/C=N/N=C/c2cccc(Cl)c2Cl)c1Cl,-1.5
6,O=C(c1ccc(I)cc1)N1CCOCC1,11.8
7,Cc1ccc(SCCNS(C)(=O)=O)cc1,3.9
8,Cc1ccc(-c2cc(NC(=O)c3ccc(F)cc3)n[nH]2)cc1,14.7
9,COC(=O)C1=NNC2C(=O)N(c3cccc(C(F)(F)F)c3)C(=O)C12 (stereo not drawn),0.8
10,c1ccc(-c2ccc(-c3nc(-c4cccnc4)no3)cc2)cc1,-2.8
11,COc1cc(C(=O)N/N=C(\C)c2ccc(NC(=O)c3cccs3)cc2)cc(OC)c1OC,-7.9
12,O=C(COc1ccc(Br)cc1)Nc1ccc(NC(=O)c2ccccc2)cc1,-3.3
13,Cc1cccc(NC(=O)c2cc(-c3ccc(Br)cc3)nc3ccccc23)n1,13.6
14,COc1cc(/C=C2\C(=O)N(c3ccc(S(N)(=O)=O)cc3)N=C2C)ccc1O,-32.2
15,CCCc1ccc(OCC(=O)N/N=C\c2cc(OC)ccc2O)cc1,0.5
16,Cc1ccc(OCCOCCN2CCC(C)CC2)c(Cl)c1,-13.1
17,CCCCc1c(C)nc2ccc(OC)cc2c1Cl,-5.7
18,Cc1cccc(N2C(=O)/C(=C/c3ccc4c(c3)OCO4)SC2=S)c1C,21.8
19,Cc1cc(=O)oc2cc(OCC(=O)c3ccccc3)cc(OCC(=O)c3ccccc3)c12,-3.1
20,Cc1ccc(C(=O)N/C(=C\c2cccs2)C(=O)N2CCCC2)cc1,2.5
21,COc1ccc(N/C(N)=N\c2nc(C)cc(C)n2)c(OC)c1,-8.7
22,CC1(c2ccccc2)C(C#N)=C(N)OC2=C1C(=O)CCC2 (stereo not drawn),-1
23,O=C1c2ccccc2C(=O)c2cc(Sc3ccccc3)ccc21,12.2

row,SMILES,displacement [%]
1,N=C1S/C(=C\c2ccc(-c3ccccc3[N+](=O)[O-])o2)C(=O)N1c1ccc2c(c1)OCO2,-5.3
2,Cc1ccc(N=C2NC(=O)/C(=C/c3ccccc3F)S2)cc1,-5.1
3,CC(=O)Nc1cccc(OC2=NS(=O)(=O)c3ccccc32)c1,1.8
4,COc1cccc(N2C(=O)CC(N3CCN(C(c4ccccc4)c4ccccc4)CC3)C2=O)c1 (stereo not drawn),5.9
5,CCCCOc1cccc(C(=O)Nc2ccc(CC)cc2)c1,-5.2
6,Cc1ccc(Cl)cc1N1CCN(C(=O)C2C3CCC(C3)C2C(=O)O)CC1 (stereo not drawn),-2.7
7,COc1cccc(C(=O)NNC(=O)c2ccc(F)cc2)c1,-9.7
8,O=C1CC(c2ccccc2)CC2=C1C(c1cccc([N+](=O)[O-])c1)Nc1ccc(C(=O)c3ccccc3)cc1N2 (stereo not drawn),3.6
9,Cc1ccc(N(CC(=O)NCc2ccccc2)S(C)(=O)=O)cc1Cl,-7.7
10,Clc1cccc(CN2CCN(Cc3ccccn3)CC2)c1,-22
11,COc1ccc(-c2nnc(N)s2)cc1OC,8.6
12,COc1cc(C=Nc2ccc(N=Cc3cc(Br)c(O)c(OC)c3)cc2)cc(Br)c1O,16.3
13,COC(=O)c1ccc(C2Nc3ccccc3NC3=C2C(=O)CC(c2ccccc2)C3)cc1 (stereo not drawn),-17.5
14,COc1ccc(C2=C/C(=C\c3cccc([N+](=O)[O-])c3)C(=O)O2)cc1,2.7
15,COc1ccc(/C=C/C(=O)c2ccc([N+](=O)[O-])cc2)cc1,105
16,CC1CCc2c(sc(NC(=O)C3CC4CCC3C4)c2C(=O)OC(C)C)C1 (stereo not drawn),8.9
17,COc1ccc(C2=NN(CN3C(=O)C(=O)c4ccccc43)C(c3ccccc3)C2)cc1 (stereo not drawn),1.4
18,O=c1/c(=C/c2cc([N+](=O)[O-])ccc2Cl)sc2nc3ccccc3n12,-7.5
19,COc1cc(NC(=O)c2cc([N+](=O)[O-])ccc2Br)ccc1NC(=O)c1ccco1,26.5
20,COc1ccc(Cl)cc1NC(=O)COc1cccc(C)c1,-8.5
21,Cc1ccc(S(=O)(=O)N=C(Nc2ccccn2)c2ccccc2)cc1,11.1
